Assay results taken from the supplement of paper PMC6089552.
Screen size: about 3,200 compounds; about 300 (9.4%) showed activity. This is a selection; strong and weak results do not stand in their true shares.

Test system: A673/TR/shEF
Experiment: cell viability (LOESS-normalised, relative to median of negative controls) (log2 ratio); higher = more viable cells (less compound effect), active = hit call of the paper (over 3 MAD below the median)
Settings: treatment time: 72 h
Method in brief: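 For three days, A673/TR/shEF Ewing sarcoma cells in 384-well plates (1,500 per well) were treated with library compounds at two or more concentrations or with DMSO controls, after doxycycline had been added or withheld 24 h beforehand to induce EWS-FLI1 shRNA knockdown. Viability was read by CellTiter-Glo luminescence on an Envision reader. The data were LOESS-corrected per plate, divided by the median of negative controls and log2-transformed.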

[1] = 0.25 µM, library screen: screen1, EWS-FLI1 expression: high (no doxycycline)
[2] = 0.25 µM, library screen: screen1, EWS-FLI1 expression: low (doxycycline-induced shRNA knockdown)
[3] = 2.5 µM, library screen: screen1, EWS-FLI1 expression: high (no doxycycline)
[4] = 2.5 µM, library screen: screen1, EWS-FLI1 expression: low (doxycycline-induced shRNA knockdown)
[5] = 0.25 µM, library screen: screen2, EWS-FLI1 expression: high (no doxycycline)
[6] = 0.25 µM, library screen: screen2, EWS-FLI1 expression: low (doxycycline-induced shRNA knockdown)
[7] = 2.5 µM, library screen: screen2, EWS-FLI1 expression: high (no doxycycline)
[8] = 2.5 µM, library screen: screen2, EWS-FLI1 expression: low (doxycycline-induced shRNA knockdown)
[9] = 0.103 µM, library screen: screen3, EWS-FLI1 expression: high (no doxycycline)
[10] = 0.103 µM, library screen: screen3, EWS-FLI1 expression: low (doxycycline-induced shRNA knockdown)
[11] = 0.308 µM, library screen: screen3, EWS-FLI1 expression: high (no doxycycline)
[12] = 0.308 µM, library screen: screen3, EWS-FLI1 expression: low (doxycycline-induced shRNA knockdown)
[13] = 0.926 µM, library screen: screen3, EWS-FLI1 expression: high (no doxycycline)
[14] = 0.926 µM, library screen: screen3, EWS-FLI1 expression: low (doxycycline-induced shRNA knockdown)
[15] = 2.8 µM, library screen: screen3, EWS-FLI1 expression: high (no doxycycline)
[16] = 2.8 µM, library screen: screen3, EWS-FLI1 expression: low (doxycycline-induced shRNA knockdown)
[17] = 8.3 µM, library screen: screen3, EWS-FLI1 expression: high (no doxycycline)
[18] = 8.3 µM, library screen: screen3, EWS-FLI1 expression: low (doxycycline-induced shRNA knockdown)
[19] = 25 µM, library screen: screen3, EWS-FLI1 expression: high (no doxycycline)
[20] = 25 µM, library screen: screen3, EWS-FLI1 expression: low (doxycycline-induced shRNA knockdown)

Measured: cell viability (log2)

COC1=CC(=O)C=C(OC)C1=O
inactive: [1] 0.132 | [2] 0.117 | [3] 0.0838 | [4] 0.00672

CC(C)(C)NCC(O)COc1cccc2c1C[C@H](O)[C@H](O)C2 (stereo partly drawn)
inactive: [1] 0.133 | [2] 0.0633 | [3] 0.167 | [4] 0.136

COc1ccc(C(=O)c2ccccc2O)c(O)c1
inactive: [1] 0.135 | [2] 0.0898 | [3] 0.256 | [4] 0.238

Cc1nc2ccc(NC(=S)N3CCC(C)CC3)cc2nc1C
inactive: [1] 0.04 | [2] -0.00492 | [3] 0.094 | [4] -0.0413

COCCc1ccc(OCC(O)CNC(C)C)cc1 (stereo not drawn)
inactive: [1] 0.111 | [2] 0.036 | [5] 0.123 | [6] 0.16 | [3] 0.122 | [4] 0.212 | [7] 0.114 | [8] 0.0835

N[C@H](C(=O)O)[C@H]1C[C@@H]1C(=O)O
inactive: [5] 0.237 | [6] 0.0918 | [7] 0.154 | [8] 0.0251

CCOC(=O)C1=C(O)C(=O)N(Cc2ccccc2)C1
inactive: [1] 0.066 | [2] 0.0602 | [3] 0.0967 | [4] 0.0302

O=c1c(O)c(-c2ccc(O)c(O)c2)oc2cc(O)cc(O)c12
active: 25 µM, library screen: screen1, EWS-FLI1 expression: high (no doxycycline) -1.43

Cc1cnc(C(=O)O)c[n+]1[O-]
inactive: [9] 0.0321 | [10] -0.00811 | [11] 0.048 | [12] 0.11 | [13] 0.0541 | [14] 0.0868 | [15] 0.00227 | [16] 0.0802 | [17] 0.0473 | [18] 0.0657 | [19] 0.0991 | [20] 0.0792

CC(=O)Nc1cccc(O)c1
inactive: [1] 0.142 | [2] 0.0568 | [3] 0.211 | [4] -0.0215

CSC(N)=NCCC[C@H](N)C(=O)O
inactive: [5] 0.185 | [6] 0.0999 | [7] 0.101 | [8] 0.0672

NC(=O)C1=CN([C@@H]2O[C@H](COP(=O)(O)OP(=O)(O)OC[C@H]3O[C@@H](n4cnc5c(N)ncnc54)[C@H](OP(=O)(O)O)[C@@H]3O)[C@@H](O)[C@H]2O)C=CC1
inactive: [5] 0.116 | [6] 0.0445 | [7] 0.0861 | [8] 0.0996

CCCCNc1ccc(C(=O)OCCN(C)C)cc1
inactive: [9] -0.0387 | [10] 0.0219 | [1] 0.076 | [2] 0.176 | [5] 0.104 | [6] 0.0375 | [11] -0.0374 | [12] 0.017 | [13] 0.0331 | [14] 0.0165 | [3] 0.214 | [4] 0.155 | [7] 0.069 | [8] 0.0977 | [15] -0.0305 | [16] 0.0252 | [17] 0.0608 | [18] 0.0489 | [19] -0.0227 | [20] 0.0657

CC(C)=CCC/C(C)=C/CC/C(C)=C/CSc1ccccc1C(=O)O
inactive: [5] 0.146 | [6] 0.068 | [7] 0.0741 | [8] 0.113

Cc1cccc(C)c1OCC(N)C(C)C (stereo not drawn)
inactive: [5] 0.0355 | [6] -0.033 | [7] 0.0196 | [8] 0.00962

CN1CCOC(c2ccccc2)c2ccccc2C1 (stereo not drawn)
inactive: [1] 0.0437 | [2] -0.00993 | [3] 0.0915 | [4] 0.11

COc1ncc(-c2ccc3nccc(-c4ccnnc4)c3c2)cc1NS(=O)(=O)c1ccc(F)cc1F
active: [9] -0.686 | [10] -0.505 | [11] -1.07 | [12] -0.722 | [13] -1.88 | [14] -1.31 | [15] -2.85 | [16] -2.24 | [17] -3.29 | [18] -2.78 | [19] -3.83 | [20] -3.59

C=C1C2CC[C@@]3(C)[C@H](c4ccoc4)OC(=O)C[C@]13O[C@H]1CC(=O)C(C)(C)[C@H](C(O)C(=O)OC)[C@@]21C (stereo partly drawn)
inactive: [1] 0.119 | [2] 0.156 | [3] 0.158 | [4] 0.144

CC(C)NC[C@H](O)COc1cccc2[nH]ccc12
inactive: [5] 0.242 | [6] 0.0575 | [7] 0.154 | [8] 0.0647

CC1CN(C(=O)c2cc(-c3ccccc3)nc3ccccc23)CC(C)O1 (stereo not drawn)
active: [1] -2.9 | [2] -2.55
inactive: [3] 0.0982 | [4] 0.0382
